# From paper PMC12820563, “FoxP3 forms a head-to-head dimer in vivo and stabilizes its multimerization on adjacent microsatellites”
# This is one part of the list.
# Target: T1, MBP-FoxP1dN (Mus musculus, UniProt P58462 326-579)
# T1 sequence: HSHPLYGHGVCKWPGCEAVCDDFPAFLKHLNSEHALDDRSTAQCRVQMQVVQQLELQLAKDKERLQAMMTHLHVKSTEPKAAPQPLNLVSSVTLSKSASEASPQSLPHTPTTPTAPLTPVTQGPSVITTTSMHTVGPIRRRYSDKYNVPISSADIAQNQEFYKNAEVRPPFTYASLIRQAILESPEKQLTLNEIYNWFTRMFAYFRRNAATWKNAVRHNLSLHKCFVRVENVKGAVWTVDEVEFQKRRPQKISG
# Assay: PD-seq (MBP pull-down with sequencing); 20 mM Tris-HCl pH 7.5, 100 mM NaCl, 1.5 mM MgCl2, 0.4 uM protein, 0.1 uM dsDNA library, 30 min, room temperature, amylose pull-down; high values mean tight binding
# Conditions: protein: recombinant; tags: His6-MBP; chain copies: 2; dsDNA, one strand shown
# Outline: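 Protein and DNA were mixed at 0.4 µM and 0.1 µM and held for 30 min at room temperature in Tris pH 7.5 buffer with NaCl and MgCl2; the protein was a His6-MBP-tagged, N-terminally truncated mouse FoxP3 or FoxP1 fragment from E. coli, and the DNA a Klenow-filled double-stranded degenerate library. Amylose resin captured the complexes, which were washed three times. Binding is read as reads-per-million enrichment of pull-down versus input after Illumina sequencing, with replicates pooled.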
row,Sequence,binding signal
1,GATGATTGTTCTCCCAGCTGATGAATTCGCTTGGTCGAGTAAACAAATTTTCCTAATCTTTCTGTTCAAGCGCCATCTAC,0.862 RPM ratio (pull-down/input)
2,GATGATTGTTCTCCCAGCTGATGAATTCTTCCAATCGAGTAAACAAATTTTCCTAATCTTTCTGTTCAAGCGCCATCTAC,0.955 RPM ratio (pull-down/input)
3,GATGATTGTTCTCCCAGCTGATGAATTGTCAGAATCGAGTAAACAAATTTTCCTAATCTTTCTGTTCAAGCGCCATCTAC,1.07 RPM ratio (pull-down/input)
4,GATGATTGTTCTCCCAGCTGATGAATTACCCTCTTCGAGTAAACAAATTTTCCTAATCTTTCTGTTCAAGCGCCATCTAC,0.954 RPM ratio (pull-down/input)
5,GATGATTGTTCTCCCAGCTGATGAATTACGATCCTCGAGTAAACAAATTTTCCTAATCTTTCTGTTCAAGCGCCATCTAC,0.986 RPM ratio (pull-down/input)
6,GATGATTGTTCTCCCAGCTGATGAATTGCAACACTCGAGTAAACAAATTTTCCTAATCTTTCTGTTCAAGCGCCATCTAC,1.44 RPM ratio (pull-down/input)
7,GATGATTGTTCTCCCAGCTGATGAATTTAACATCTCGAGTAAACAAATTTTCCTAATCTTTCTGTTCAAGCGCCATCTAC,0.896 RPM ratio (pull-down/input)
8,GATGATTGTTCTCCCAGCTGATGAATTAGGATAGTCGAGTAAACAAATTTTCCTAATCTTTCTGTTCAAGCGCCATCTAC,0.902 RPM ratio (pull-down/input)
9,GATGATTGTTCTCCCAGCTGATGAATTGACCCCATCGAGTAAACAAATTTTCCTAATCTTTCTGTTCAAGCGCCATCTAC,0.961 RPM ratio (pull-down/input)
10,GATGATTGTTCTCCCAGCTGATGAATTAGGACCGTCGAGTAAACAAATTTTCCTAATCTTTCTGTTCAAGCGCCATCTAC,0.839 RPM ratio (pull-down/input)
11,GATGATTGTTCTCCCAGCTGATGAATTATCAGTGTCGAGTAAACAAATTTTCCTAATCTTTCTGTTCAAGCGCCATCTAC,1.06 RPM ratio (pull-down/input)
12,GATGATTGTTCTCCCAGCTGATGAATTCATGCAGTCGAGTAAACAAATTTTCCTAATCTTTCTGTTCAAGCGCCATCTAC,1.02 RPM ratio (pull-down/input)
13,GATGATTGTTCTCCCAGCTGATGAATTAGAGGAATCGAGTAAACAAATTTTCCTAATCTTTCTGTTCAAGCGCCATCTAC,0.902 RPM ratio (pull-down/input)
14,GATGATTGTTCTCCCAGCTGATGAATTAGACGTTTCGAGTAAACAAATTTTCCTAATCTTTCTGTTCAAGCGCCATCTAC,0.937 RPM ratio (pull-down/input)
15,GATGATTGTTCTCCCAGCTGATGAATTACGGGCATCGAGTAAACAAATTTTCCTAATCTTTCTGTTCAAGCGCCATCTAC,1.11 RPM ratio (pull-down/input)
16,GATGATTGTTCTCCCAGCTGATGAATTGCCACGGTCGAGTAAACAAATTTTCCTAATCTTTCTGTTCAAGCGCCATCTAC,0.928 RPM ratio (pull-down/input)
17,GATGATTGTTCTCCCAGCTGATGAATTGCTTCCCTCGAGTAAACAAATTTTCCTAATCTTTCTGTTCAAGCGCCATCTAC,1.03 RPM ratio (pull-down/input)
18,GATGATTGTTCTCCCAGCTGATGAATTAGTTGGGTCGAGTAAACAAATTTTCCTAATCTTTCTGTTCAAGCGCCATCTAC,0.908 RPM ratio (pull-down/input)
19,GATGATTGTTCTCCCAGCTGATGAATTTCCAATGTCGAGTAAACAAATTTTCCTAATCTTTCTGTTCAAGCGCCATCTAC,0.862 RPM ratio (pull-down/input)
20,GATGATTGTTCTCCCAGCTGATGAATTACTCGTTTCGAGTAAACAAATTTTCCTAATCTTTCTGTTCAAGCGCCATCTAC,0.959 RPM ratio (pull-down/input)

row,Sequence,binding signal
1,GATGATTGTTCTCCCAGCTGATGAATTCACTTCATCGAGTAAACAAATTTTCCTAATCTTTCTGTTCAAGCGCCATCTAC,0.896 RPM ratio (pull-down/input)
2,GATGATTGTTCTCCCAGCTGATGAATTTTCGTCATCGAGTAAACAAATTTTCCTAATCTTTCTGTTCAAGCGCCATCTAC,1.12 RPM ratio (pull-down/input)
3,GATGATTGTTCTCCCAGCTGATGAATTTTTCTGCTCGAGTAAACAAATTTTCCTAATCTTTCTGTTCAAGCGCCATCTAC,0.893 RPM ratio (pull-down/input)
4,GATGATTGTTCTCCCAGCTGATGAATTGCTAACTTCGAGTAAACAAATTTTCCTAATCTTTCTGTTCAAGCGCCATCTAC,1.17 RPM ratio (pull-down/input)
5,GATGATTGTTCTCCCAGCTGATGAATTGCTCGGATCGAGTAAACAAATTTTCCTAATCTTTCTGTTCAAGCGCCATCTAC,0.91 RPM ratio (pull-down/input)
6,GATGATTGTTCTCCCAGCTGATGAATTGCTAGAATCGAGTAAACAAATTTTCCTAATCTTTCTGTTCAAGCGCCATCTAC,1.14 RPM ratio (pull-down/input)
7,GATGATTGTTCTCCCAGCTGATGAATTTTCAGAGTCGAGTAAACAAATTTTCCTAATCTTTCTGTTCAAGCGCCATCTAC,0.876 RPM ratio (pull-down/input)
8,GATGATTGTTCTCCCAGCTGATGAATTAAGTAGCTCGAGTAAACAAATTTTCCTAATCTTTCTGTTCAAGCGCCATCTAC,0.965 RPM ratio (pull-down/input)
9,GATGATTGTTCTCCCAGCTGATGAATTCCAATATTCGAGTAAACAAATTTTCCTAATCTTTCTGTTCAAGCGCCATCTAC,0.983 RPM ratio (pull-down/input)
10,GATGATTGTTCTCCCAGCTGATGAATTAGGAGTATCGAGTAAACAAATTTTCCTAATCTTTCTGTTCAAGCGCCATCTAC,1.02 RPM ratio (pull-down/input)
11,GATGATTGTTCTCCCAGCTGATGAATTTCGGACTTCGAGTAAACAAATTTTCCTAATCTTTCTGTTCAAGCGCCATCTAC,0.741 RPM ratio (pull-down/input)
12,GATGATTGTTCTCCCAGCTGATGAATTCTTGACTTCGAGTAAACAAATTTTCCTAATCTTTCTGTTCAAGCGCCATCTAC,0.876 RPM ratio (pull-down/input)
13,GATGATTGTTCTCCCAGCTGATGAATTCTCTGAATCGAGTAAACAAATTTTCCTAATCTTTCTGTTCAAGCGCCATCTAC,0.874 RPM ratio (pull-down/input)
14,GATGATTGTTCTCCCAGCTGATGAATTCAAGGCTTCGAGTAAACAAATTTTCCTAATCTTTCTGTTCAAGCGCCATCTAC,0.809 RPM ratio (pull-down/input)
15,GATGATTGTTCTCCCAGCTGATGAATTTGCGAACTCGAGTAAACAAATTTTCCTAATCTTTCTGTTCAAGCGCCATCTAC,0.948 RPM ratio (pull-down/input)
16,GATGATTGTTCTCCCAGCTGATGAATTAATGTACTCGAGTAAACAAATTTTCCTAATCTTTCTGTTCAAGCGCCATCTAC,1.14 RPM ratio (pull-down/input)
17,GATGATTGTTCTCCCAGCTGATGAATTCCCCAGGTCGAGTAAACAAATTTTCCTAATCTTTCTGTTCAAGCGCCATCTAC,0.743 RPM ratio (pull-down/input)
18,GATGATTGTTCTCCCAGCTGATGAATTGTGTTCTTCGAGTAAACAAATTTTCCTAATCTTTCTGTTCAAGCGCCATCTAC,1.33 RPM ratio (pull-down/input)
19,GATGATTGTTCTCCCAGCTGATGAATTAATAACTTCGAGTAAACAAATTTTCCTAATCTTTCTGTTCAAGCGCCATCTAC,1.12 RPM ratio (pull-down/input)
20,GATGATTGTTCTCCCAGCTGATGAATTCGTGTCTTCGAGTAAACAAATTTTCCTAATCTTTCTGTTCAAGCGCCATCTAC,0.864 RPM ratio (pull-down/input)
